In PubChem BioAssay AID652106 (National Center for Advancing Translational Sciences (NCATS), 2013):
Hit rate of the full screen: of about 370,000 compounds, about 500 (0.14%) were called active. The inconclusive results got no clear call from the source; some entries with a clear call stand among them for comparison. Calls come from the whole dose curve; as a rule, active = well fitted activation curve with a large enough effect; inconclusive = small, poorly fitted or top-dose-only effect; inactive = no such curve, though single readings can be large or run the other way. Potencies beside an inconclusive call are fits to weak or partial responses and may not hold up.

Test: qHTS of alpha-syn Inhibitors; note: nearly all actives have a fitted effect of over 65% in size; for growth rescue (activation): % of control where 0% means no effect
Conditions: Yeast expressing alpha-synuclein, BacTiter-Glo, 24 h; Potency: growth rescue unless noted; growth rescue (activation): at 46.1 µM (top of the series) unless noted
Outline: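 Galactose-induced alpha-syn yeast (OD600=0.02, raffinose-pregrown) + pinned cpd, 24 hr, 30 deg C; growth by BacTiter-Glo luminescence. Growth restoration scores as activation.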
Potency is the fitted concentration of half-maximal effect; tags give direction and shape of the fitted curve.

Potency, inconclusive:
Cc1ccc(S(=O)(=O)NCCSc2ccccc2)cc1[N+](=O)[O-] 20 µM [activator, single point], CC(C(=O)Nc1nc(-c2ccc(F)cc2)cs1)N1C(=O)C2CC=CCC2C1=O (stereo not given) 14.1 µM [activator, single point], COC(=O)c1c(NC(=O)CCC(=O)O)sc(Cc2ccccc2)c1C 35.5 µM [activator, single point], Cc1occc1C(=O)NNC(=S)NC(=O)COc1ccc(Cl)cc1Cl 35.5 µM [activator, single point], CNC(=O)COC(=O)c1ccc(NC(=O)CC#N)cc1 22.4 µM [activator, single point], O=C/C=C/c1c(-c2ccccc2)cc2oc3ccccc3cc1-2 31.6 µM [activator, single point], O=C(COC(=O)c1ccc(F)cc1F)NC(=O)Nc1ccc2c(c1)OCCO2 31.6 µM [activator, single point], COc1ccc(S(=O)(=O)NCCc2c[nH]c3ccc(C)cc23)cc1 0.562 µM [activator, partial curve, poor fit], COc1cccc(-c2ncc3ccccc3c2COC(=O)c2cccc(Br)c2)c1 7.94 µM [activator, partial curve], COCCN(C(=O)COC(=O)c1cc2c(s1)CCC2)c1c(N)n(Cc2ccccc2)c(=O)[nH]c1=O 5.62 µM [activator, single point], CS(=O)(=O)NCCNC(=O)c1cc(OCC(F)(F)F)ccc1OCC(F)(F)F 35.5 µM [activator, single point], CCOc1ccccc1NC1c2ccccc2C(=O)N1c1cccnc1 (stereo not given) 31.6 µM [activator, single point], CCCCCC(O)(c1ccccc1)C(CN1CCOCC1)c1ccccc1 (stereo not given) 5.62 µM [activator, single point], COc1c2ccoc2c(OCC=C(C)C)c2oc(=O)ccc12 14.1 µM [activator, partial curve], Cc1cccc(C(=O)O/N=C(/c2ccccc2)c2ccncc2)c1 11.2 µM [activator, partial curve], COc1ccccc1NCc1cccn1-c1nnc(N2CCOCC2)s1 35.5 µM [activator, partial curve], COc1cc(NC(=O)COC(=O)C2CC2)c(C)cc1[N+](=O)[O-] 3.55 µM [activator, single point], COc1cccc(/C=N/NC(=O)C(=O)N2CCCC2)c1O 31.6 µM [activator, single point], Cc1ccc(S(=O)(=O)NCc2ccccc2)cc1C(=O)N(C)CC(=O)Nc1ccccc1Br 25.1 µM [activator, single point], CCOc1ccc(CCNC(=O)C2CC(=O)N(Cc3ccc(OC)cc3)C2)cc1OCC (stereo not given) 0.501 µM [activator, partial curve, poor fit], O=C(CCN1C(=O)NC2(CCCC2)C1=O)Nc1ccc(Sc2ccc(Br)cc2)cc1 2.51 µM [activator, single point], COc1cccc(C(=O)NCCSc2c(C)[nH]c3ccccc23)c1OC 22.4 µM [activator, single point], CCC(c1nnnn1Cc1cccs1)N1CCN(c2nc3ccccc3s2)CC1 (stereo not given) 0.891 µM [activator, full curve, poor fit], O=C(Cc1ccc(OCCCCc2ccccc2)cc1)NO 3.55 µM [activator, single point], CCOc1ccc(NC(=O)C2CC(=O)N(Cc3ccco3)C2)cc1 (stereo not given) 25.1 µM [activator, single point], O=C1C2C3C=CC(CC3)C2C(=O)N1c1ccccc1[N+](=O)[O-] (stereo not given) 35.5 µM [activator, single point], Cc1ccc(S(=O)(=O)N2CCN(c3nc(-c4ccnnc4)nc4ccccc34)CC2)cc1 11.2 µM [activator, single point], O=C(CSc1ccc(Cl)cc1)N1CCC(c2nc3ccccc3s2)CC1 25.1 µM [activator, single point], O=C(NCC1CCCO1)C1CCCN(c2ncccn2)C1 (stereo not given) 5.62 µM [activator, single point], COc1cccc(NS(=O)(=O)c2ccc3c(c2)CCCN3C(C)=O)c1 31.6 µM [activator, single point], Cc1cc(NC2CCCCC2)nc(-n2nc(C)cc2C)n1 23.1 µM [activator, partial curve], CC(/C=C/c1ccc(N(C)C)cc1)=N/N=C1/NC(=O)CC(C(=O)Nc2ccc(Cl)cc2)S1 (stereo not given) 31.6 µM [activator, single point], O=C(COC(=O)c1ccc2c(c1)C(=O)N(Cc1ccncc1)C2=O)Nc1cccc2ccccc12 5.62 µM [activator, single point], O=C(NCc1ccccc1)c1ccc(C(=O)N(C2CCCCC2)C2CCCCC2)cc1 31.6 µM [activator, single point], CCCCCCC(=O)Oc1cccc(C2=CC(=O)CC(C)(C)C2=O)c1 6.31 µM [activator, single point], CC(C)C[C@H](NC(=O)c1[nH]cnc1C(=O)Nc1ccccc1)C(=O)OC(C)(C)C 25.1 µM [activator, single point], CCCCN1C(=O)C(CC(=O)NCc2ccco2)CC(C(=O)N2CCOCC2)=C1C (stereo not given) 31.6 µM [activator, single point], CC1(C)CC(=O)C2=C(C1)OC1=C(C(=O)CC(C)(C)C1)C2c1ccccc1Cl 5.62 µM [activator, single point], O=C(CNc1ccc2ccccc2c1)N/N=C/c1ccccn1 15.8 µM [activator, single point], CC(C)=CCC/C(C)=C/CNC(=O)C[C@H]1C[C@H](C(=O)N2CCOCC2)[C@@]2(C)c3[nH]c4cc(-c5ccco5)ccc4c3CCN2C1=O 5.62 µM [activator, single point], CC1(Cc2cccc(C#N)c2)C(=O)Nc2ccc(-c3cccc(C(F)(F)F)c3)cc21 (stereo not given) 22.4 µM [activator, single point]

Potency, active:
COc1ccc(CN(C(=O)/C=C/C(=O)c2ccc(OC)cc2O)C(C(=O)NC2CCCCC2)c2ccncc2)cc1 (stereo not given) 35.5 µM, O=C(NC(=S)NNC(=O)c1ccco1)c1ccccc1 12.6 µM, CCCCOc1ccc(NC(=O)Nc2nnc(C)s2)cc1 1.26 µM

Potency, inactive:
COc1ccc(OC)c(NC(=O)NNC(=O)c2cc3occc3[nH]2)c1, COc1ccc(-c2nc3c4ccccc4ccn3c2Cc2ccsc2)cc1OC, Cc1ccc(NC(=O)COc2ccc(/C=N/NC(=O)CSCc3ccccc3)cc2)cc1, COc1ccc(-c2nc3cc(NC(=O)Cc4ccc(OC)c(OC)c4)ccc3o2)cc1, O=C(c1cccc(N2CCCC2=O)c1)N1CCN(c2ccccc2)CC1, CCCC1C(C(=O)OCC)=C(C)NC(C)=C1C(=O)OCC, CCOc1ccccc1NC(=O)COC(=O)c1cc(C(=O)OC)cc([N+](=O)[O-])c1, CC(C)c1ccc(Nc2n[nH]c(=S)s2)cc1, O=C(N/N=C/c1cc(Br)c(Br)o1)c1cc2ccccc2o1, Cn1c(NCCCN2CCOCC2)nc2c1c(=O)n(Cc1ccc(Cl)cc1Cl)c(=O)n2C, N#Cc1ccc(Nc2nc(-c3ccccc3)cs2)cc1, O=C(NCc1cccc(Cl)c1)c1cc(COc2ccc3ncccc3c2)on1, CCN1CCN(C(=O)c2ccc3c(c2)N(Cc2ccc(C)cc2)CCS3)CC1, CCCOc1ccc(N/C=C/C(=O)c2ccc(OC)c(OC)c2)cc1, COCCN=c1scc(-c2ccco2)n1/N=C/c1ccc(O)c(O)c1O, Cc1ccc(/C=C/C(=O)O)cc1S(=O)(=O)N1CCCc2ccccc21, O=C(O)c1cc(N=Nc2c(O)[nH]c3ccc([N+](=O)[O-])cc23)ccc1Cl, CCNC(=O)C1(C)CCN(C(=O)c2ccc(OC)c(OC)c2)C1 (stereo not given), CCN1C[C@@H]2[C@@H]3C(=O)N(Cc4ccccc4)C(=O)[C@@H]3[C@](Cc3ccccc3)(C1=O)N2C(=O)c1ccc(Cl)c(Cl)c1, N#Cc1c(N)nc2c(c1-c1ccco1)CCCCC2, C=C(C)Cn1c(-c2cccc([N+](=O)[O-])c2)n[nH]c1=S, O=C(C1CCCO1)N1CCN(S(=O)(=O)c2cc(F)ccc2F)CC1 (stereo not given)

Growth rescue (activation), inconclusive:
CC(Oc1ccc(Cl)cc1)C(=O)NNC(=S)NC(=O)c1ccco1 (stereo not given) -38.1% [activator], O=c1c(Br)ccc(Br)cc1Br -64.9% [activator], COCCOC(=O)/C(=C/c1ccc(OC(=O)c2ccccc2)cc1)C(C)=O -62.4% [activator], Cc1cnc2c3c(cc(Cl)c2c1)-c1ccccc1S(=O)(=O)N3 -57.1% [activator]
